Laboratory results as given in PubChem BioAssay (NCATS).
The other results are listed elsewhere or left out. These are further read-outs of the screen, such as a control signal, another cell line or another target. No call is given for them. Compounds called inactive in the main read-out are mostly missing here. Potencies come from curve fits of mixed quality, noted in brackets. Where a SMILES comes first, the peptide text is derived from it. The star is where a group is joined. AMC = Cc1cc(=O)oc2cc(N*)ccc12; Cbz = O=C(OCc1ccccc1)*

molecular target: Nicotinamide N-methyltransferase (Homo sapiens) (UniProt P40261); assay: Confirmatory Screen for Target Class Profiling of Small Molecule Inhibitors of Methyltransferases (AID 1745852); settings: MTase-Glo luminescence, SAH detection, recombinant enzyme; measured here: NNMT inhibition potency;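 also: inhibitor potency for blocking SAH production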
Sequence of UniProt P40261 (P40261 whole entry, looked up): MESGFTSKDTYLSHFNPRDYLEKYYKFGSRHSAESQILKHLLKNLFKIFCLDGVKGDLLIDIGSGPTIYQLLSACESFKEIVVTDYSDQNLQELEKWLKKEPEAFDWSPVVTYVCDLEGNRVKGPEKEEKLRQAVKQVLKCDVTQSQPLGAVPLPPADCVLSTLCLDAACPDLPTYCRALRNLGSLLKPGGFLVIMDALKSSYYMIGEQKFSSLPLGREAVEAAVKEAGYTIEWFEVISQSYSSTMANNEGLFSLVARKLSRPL
Tags tell the direction and shape of the fitted curve.

SMILES | IC50
CCCCCCCOc1cc2c(cc1/C(C)=C/c1ccc(C(=O)O)cc1)C(C)(C)CCS2(=O)=O | 24.1 µM [falling, partial curve]
COc1ccc(CCN2C(=O)c3cc4occc4n3CC2(C)C(=O)NC2CCCCCC2)cc1OC (stereo not given) | 17.1 µM [falling, partial curve]
O=[N+]([O-])c1ccc(CNc2nc(NCc3cccc(C(F)(F)F)c3)nc3nc[nH]c23)cc1 | 12.1 µM [falling, partial curve]
O=C(O)CCc1ccc(NCc2cccc3c2CCCN3CCOc2ccccc2)cc1F | 27.1 µM [falling, single point]
COc1ccc(CCNC(=O)CCc2nnc3n(CC(C)C)c(=O)c4ccccc4n23)cc1OC | 21.5 µM [falling, partial curve]
Cn1ncc2c(N3CCN(S(N)(=O)=O)CC3)nc(C3CCCC3)nc21 | 27.1 µM [falling, partial curve]
COc1cccc(CNC(=O)c2sc(=S)n3c2[nH]c(=O)c2cc4c(cc23)OCO4)c1 | 24.1 µM [falling, partial curve]
Cc1nn(C(=O)CCC(=O)N2CCC(Cc3nncn3CC3CC3)CC2)c2ccccc12 | 21.5 µM [falling, partial curve]
CC[C@H]1CN(c2nc(N)c(C(N)=O)nc2Cl)CCN1C1CCN(Cc2ccc(Cl)cc2)CC1 | 10.5 µM [falling, partial curve]
CCCn1c(=O)c2ccccc2n2c(=O)n(CC(=O)c3cc(C)ccc3C)nc12 | 9.61 µM [falling, partial curve]
COC1CCN(c2cc(-c3ccsc3)nc3c(C)noc23)CC1 | 35 µM [falling, partial curve, poor fit]
Cc1cnc(C2CC2)n1C1CCN(S(=O)(=O)c2ccc3c(c2)OCCO3)CC1 | 24.1 µM [falling, single point]
C[C@]1(C2CCCC2)Cc2cc(OCC(=O)O)c(Cl)c(Cl)c2C1=O | 21.5 µM [falling, partial curve]
CN1CCN(c2ncnc3sc4c(c23)CCNC4)CC1 | 19.2 µM [falling, partial curve]
CC(C)Cn1c(=O)c2ccccc2n2c(CCC(=O)N3CCN(c4cccc(Cl)c4)CC3)nnc12 | 6.81 µM [falling, full curve]
CC(C)Cn1c(=O)c2ccccc2n2c(CCC(=O)NCCc3ccc(Cl)cc3)nnc12 | 24.1 µM [falling, partial curve]
CC(C)CCn1c(=O)c2ccccc2n2c(CCC(=O)N3CCN(c4ccc(F)cc4)CC3)nnc12 | 19.2 µM [falling, partial curve]
CCN(CC)CCN(Cc1ccc(-c2ccc(C(F)(F)F)cc2)cc1)C(=O)Cn1c(SCc2ccc(F)cc2)nc(=O)c2c1CCC2 | 15.2 µM [falling, partial curve]
CCCCN1C(=O)c2cc(C(=O)NCc3ccc(OC)cc3OC)nn2CC1(C)C(=O)NC1CCCC1 (stereo not given) | 21.5 µM [falling, partial curve]
COc1ccc(CCN2C(=O)c3cc4oc(C)cc4n3CC2(C)C(=O)NC2CCCCC2)cc1OC (stereo not given) | 4.82 µM [falling, full curve]

SMILES | IC50
Nc1nc(NC2CC2)cc(-c2cccc(Cl)c2Cl)n1 | 21.5 µM [falling, partial curve]
FC(F)(F)c1ccnc(N2CC[C@H](c3nnc(-c4ccncc4)o3)C2)n1 | 31.2 µM [falling, partial curve]
CC(C)CCn1c(=O)c2ccccc2n2c(CCC(=O)N3CCN(c4ccccc4F)CC3)nnc12 | 19.2 µM [falling, partial curve]
O=C(CCc1nnc2n(CCc3ccccc3)c(=O)c3ccccc3n12)N1CCN(c2ccccc2)CC1 | 9.61 µM [falling, partial curve]
CC1(C)CCC(C)(C)c2cc(C#Cc3ccc(C(=O)O)cc3)ccc21 | 27.1 µM [falling, partial curve]
NC(N)=NC(=O)c1cnn(-c2cccc3ncccc23)c1C1CC1 | 19.2 µM [falling, partial curve]
CCc1c(-c2ccccc2)c(-c2ccccc2)nn1-c1ccccc1-c1cccc(OCC(=O)O)c1 | 21.5 µM [falling, partial curve]
CCCn1c(=O)c2ccccc2n2c(=O)n(CC(=O)c3cccc(Cl)c3)nc12 | 13.6 µM [falling, partial curve]
COc1cncc(Nc2ncc(-c3ccccc3OC)c3c2OCC3)c1 | 35 µM [falling, partial curve]
CC(C)Cn1c(=O)c2ccccc2n2c(=O)n(CC(=O)c3cccc(Cl)c3)nc12 | 10.8 µM [falling, full curve]
Cc1nc(NC(=O)C2CC(=O)N(c3n[nH]c4cc(Br)ccc34)C2)sc1C (stereo not given) | 1.93 µM [falling, full curve]
Cc1cc(=O)oc2cc(NC(=O)[C@H](CCC(=O)O)NC(=O)[C@H](CC(C)C)NC(=O)[C@H](CC(C)C)NC(=O)OCc3ccccc3)ccc12 (Cbz-Leu-Leu-Glu-{AMC}) | 13.6 µM [falling, partial curve]
C[C@H]1CN(C(=O)c2nn(C)c3ccccc23)C[C@@H]1c1nc(-c2cccnc2)no1 | 1.53 µM [falling, full curve]
COc1ccc(CCN2C(=O)c3cc4occc4n3CC2(C)C(=O)NC2CCCCC2)cc1OC (stereo not given) | 21.5 µM [falling, partial curve]
CN1CCN(C(=O)c2ccc(Nc3nccc(-c4cccs4)n3)cc2Cl)CC1 | 24.1 µM [falling, single point]
Cc1ccn(-c2cc(Cl)ccc2[C@@H](Oc2cc(-c3ccc(C[C@H](N)C(=O)O)cc3)nc(N)n2)C(F)(F)F)n1 | 21.5 µM [falling, partial curve]
O=c1[nH]ccc2nc(-c3ccc(CN4CCC(c5nc(-c6ccccn6)n[nH]5)CC4)cc3)c(-c3ccccc3)cc12 | 21.5 µM [falling, partial curve]
C=C(F)c1sc(CNCCCNc2cc(=O)c3ccccc3[nH]2)c(C)c1Br | 21.5 µM [falling, partial curve]
COc1ccccc1N1CCN(c2ncnc3n[nH]c(Br)c23)CC1 | 21.5 µM [falling, partial curve]
CC(C)C[C@H](C(=O)O)c1cc(-c2ccc(C(F)(F)F)cc2)cc(-c2ccc(C(F)(F)F)cc2)c1 | 30.4 µM [falling, single point]
